# For part of its entries the source gives two or more results. This is not the full list of results. There may be further records. Values that stand side by side are repeated measurements (runs, samples, wells, individuals or studies). Inconclusive results are not listed. How the source made its calls, unless noted: active means hit-call score of the fitted dose curve at least 0.9, where 1 is the maximum; inconclusive means response in the unintended direction; inactive means score below 0.9. A structure can be active in one record and inactive in another.
# Experiments:
# [1] = ATG_PPRE_CIS: Attagene CIS-FACTORIAL HepG2 Assay for human Peroxisome Proliferator-activated Response Element (PPRE) (AID 2282958; active means hit-call score of the fitted dose curve at least 0.9, where 1 is the maximum; inactive means score below 0.9); settings: HepG2 PPRE cis-element reporter, Attagene transcription factor profiling; actives raise or lower the signal
# Procedure, shortened: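 HepG2 cells are transiently transfected with multiplexed cis-promoter reporter units to report endogenous PPAR activity. After 24 h dosing, reporter mRNA is read by RT-PCR and capillary electrophoresis. Fitting is bidirectional against DMSO.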
# [2] = biological target: human Retinoid X Receptor beta (RXRb), RXRB (gene 6257) (UniProt P28702); assay: ATG_RXRb_TRANS: Attagene TRANS-FACTORIAL HepG2 Assay for human Retinoid X Receptor beta (RXRb) (AID 2283013)
# Sequence of UniProt P28702 (P28702 whole entry, looked up, the tested form may be a part): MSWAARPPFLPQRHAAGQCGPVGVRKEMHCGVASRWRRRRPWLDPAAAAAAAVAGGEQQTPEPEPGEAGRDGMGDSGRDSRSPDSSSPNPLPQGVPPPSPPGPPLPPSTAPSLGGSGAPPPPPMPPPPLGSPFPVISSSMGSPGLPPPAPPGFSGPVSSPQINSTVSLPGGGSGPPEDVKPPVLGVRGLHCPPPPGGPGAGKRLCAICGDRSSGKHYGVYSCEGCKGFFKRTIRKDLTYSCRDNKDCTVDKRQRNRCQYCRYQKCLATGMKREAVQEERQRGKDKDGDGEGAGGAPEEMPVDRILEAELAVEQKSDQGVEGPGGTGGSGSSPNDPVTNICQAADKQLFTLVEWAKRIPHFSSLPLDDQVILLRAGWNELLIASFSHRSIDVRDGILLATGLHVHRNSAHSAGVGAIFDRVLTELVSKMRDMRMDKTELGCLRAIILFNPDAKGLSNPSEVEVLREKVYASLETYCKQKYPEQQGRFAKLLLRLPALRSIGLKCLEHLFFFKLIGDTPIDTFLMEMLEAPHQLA
# Procedure, shortened: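 HepG2 cells transiently transfected with multiplexed reporter units driven by GAL4-UAS and exogenous chimeric NR-Gal4 proteins; treated 24 h. Reporter mRNA measured by RT-PCR, 6-FAM labelling and capillary electrophoresis; gain-of-signal fitted versus DMSO baseline.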
# [3] = ATG_NRF2_ARE_CIS: Attagene CIS-FACTORIAL HepG2 Assay for human Nuclear Factor Erythroid 2 Related Factor 2 (NFR2) response to Antioxidant Response Elements (ARE) (AID 2282992; active means hit-call score of the fitted dose curve at least 0.9, where 1 is the maximum; inactive means score below 0.9;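 further: reporter mRNA level measured by RT-PCR and capillary electrophoresis fluorescence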); settings: HepG2 Attagene ARE/NRF2 reporter, transcription factor activity; actives raise or lower the signal
# Procedure, shortened: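 Cis-factorial assay: transfected HepG2 reporter library, 24 h dosing, mRNA readout via RT-PCR/CE; DMSO-referenced bidirectional analysis.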
# [4] = biological target: bovine Estrogen Receptor (ER), ESR1 (gene 407238) (UniProt P49884); assay: NVS_NR_bER: NovaScreen (NVS) Nuclear Receptor Binding Assay for bovine Estrogen Receptor (ER) (AID 2283345);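 further: actives lower the bound radioligand count which means they displace the ER ligand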
# Sequence of UniProt P49884 (P49884 whole entry, looked up): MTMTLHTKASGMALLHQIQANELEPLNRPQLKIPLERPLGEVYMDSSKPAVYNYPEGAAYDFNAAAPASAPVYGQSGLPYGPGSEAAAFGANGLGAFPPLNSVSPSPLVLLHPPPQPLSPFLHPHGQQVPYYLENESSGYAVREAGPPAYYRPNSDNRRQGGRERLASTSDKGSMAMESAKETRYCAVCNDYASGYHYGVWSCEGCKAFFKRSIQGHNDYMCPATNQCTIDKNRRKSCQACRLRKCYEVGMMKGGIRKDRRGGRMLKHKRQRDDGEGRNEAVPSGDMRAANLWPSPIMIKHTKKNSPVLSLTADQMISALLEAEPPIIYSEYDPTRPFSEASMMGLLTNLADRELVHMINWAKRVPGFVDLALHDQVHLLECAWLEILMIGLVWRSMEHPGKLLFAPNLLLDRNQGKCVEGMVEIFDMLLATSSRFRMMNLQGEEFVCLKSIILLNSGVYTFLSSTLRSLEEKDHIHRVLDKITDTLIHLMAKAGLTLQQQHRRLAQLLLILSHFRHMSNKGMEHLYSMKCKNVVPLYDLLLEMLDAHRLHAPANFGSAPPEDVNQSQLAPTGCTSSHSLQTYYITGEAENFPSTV
# Procedure, shortened: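 Scintillation counting of displaced radioligand gave the readout; bovine uterine membrane extract supplied the receptor. Measured 18 h post-dose, normalized to DMSO baseline. Single 25 uM duplicate screen preceded concentration-response follow-up.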
# [5] = biological target: Retinoic acid receptor RXR-alpha (Homo sapiens) (UniProt P19793); assay: OT_NURR1_NURR1RXRa_1440: Odyssey Thera (OT) 24-hour HEK293T Protein Complementation Assay for Nurr1/retinoid X receptor (RXR) (AID 2283386)
# Sequence of UniProt P19793 (P19793 whole entry, looked up, the tested form may be a part): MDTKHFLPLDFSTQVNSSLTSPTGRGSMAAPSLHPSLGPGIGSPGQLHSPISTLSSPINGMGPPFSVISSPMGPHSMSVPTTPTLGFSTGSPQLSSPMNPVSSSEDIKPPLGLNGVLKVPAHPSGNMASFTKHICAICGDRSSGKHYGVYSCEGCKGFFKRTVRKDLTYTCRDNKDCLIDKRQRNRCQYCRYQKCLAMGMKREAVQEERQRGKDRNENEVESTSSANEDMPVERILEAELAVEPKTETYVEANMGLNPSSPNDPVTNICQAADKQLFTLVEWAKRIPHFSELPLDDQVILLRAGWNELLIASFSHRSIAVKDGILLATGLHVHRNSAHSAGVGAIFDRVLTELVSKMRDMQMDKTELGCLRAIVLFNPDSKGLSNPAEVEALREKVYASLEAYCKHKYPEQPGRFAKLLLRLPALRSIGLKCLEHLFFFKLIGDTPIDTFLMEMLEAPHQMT
# Procedure, shortened: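 HEK293T cells were dosed with compound and read 24 h later by fluorescence intensity in a protein-fragment complementation format, where Nurr1–RXRα interaction reconstitutes a split reporter. Activity was fitted as gain of signal relative to DMSO baseline.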
structure (smiles),measurement,setting,value
O=C(O)Cc1cc(I)c(Oc2ccc(O)c(I)c2)c(I)c1,AC50,[1],"active: 4.33, 2.39, 16.8, 2 µM [separate samples]"
same,AC50,[2],"active: 26.5, 4.9, 26.8, 26.6 µM [separate samples]"
CCCCCCCC[Si](OCC)(OCC)OCC,AC50,[3],"active: 124, 35.4, 70.5, 37.6 µM [separate samples]"
CCCCCc1ccc(N)cc1,AC50,[3],"active: 7.34, 10.9, 15.1, 4.71 µM [separate samples]"
C[C@]12CC[C@@H]3c4ccc(O)cc4CC[C@H]3[C@@H]1CCC2=O,AC50,[4],"active: 26.4, 11.9, 6.99, 25.1 nM [separate samples]"
O=c1c(-c2ccc(O)cc2)coc2cc(O)cc(O)c12,AC50,[5],"active: 22.1, 24.8, 39.2, 10.3 µM [separate samples]"

# From PubChem BioAssay (EPA / NIEHS)
